Some of the results follow.

Data on 88 sequences can be found in the supplement of paper PMC11417369.

This test relates to PF3D7_0420300 AP2 domain 1 (GST-tagged). In words: gcPBM binding intensity (ln(normalized median fluorescence intensity)); higher = stronger DNA binding. The procedure, abridged:
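An Agilent 4 × 180k array of primer-extended double-stranded 36-bp intergenic genomic probes, with negative controls, was incubated for 1 h with GST-tagged P. falciparum DNA-binding domains expressed in E. coli. Alexa488 anti-GST antibody detected bound protein, scanned at 488 nm. Binding intensity is the highest Masliner-normalised natural-log median intensity across replicate spots of either probe orientation.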
Take “CGCATAAAGACAAGAACACACATATATATTGTAGTA [CACACA_site5938]”: the “gcPBM binding intensity (ln)” value was found to be 9.38. For the sequence “CAACAACAAAAAAAAAAATAATAATAATAAAAAATA [TGCATGCA_negctrl_site271]”, the “gcPBM binding intensity (ln)” value was 9.1. For “AGAAAAAAATAATGTACACACACATATATGTTTATA [CACACA_site7946]” the value was 9.64; for “ATATACAAAGGATTAACACACATATTATTATATATA [CACACA_site1880]”, 9.57. With “TATTTTTTAAAAAAATGTCATAAAATTTCTTTTTTC [XGTACX_negctrl_site271]” the figure was 8.78. With “AATACAATATAAAGGTGTACATATATATATATATAT [XGTACX_site68]” the figure was 9.47; with “ATGTAGATAGATAGGGTGCTAAAAATAAGATTTATA [GTGCAC_site9602]”, 9.2. For the sequence “AAAAAAAAAAAAAAAACACACACAACACCCATACCT [CACACA_site9208]”, the “gcPBM binding intensity (ln)” value is 9.73. For “TACAAAATATTTTACACACACATATAAATACCTATA [CACACA_site7272]” the value was 9.83; for TATATATATATATGAGTGCATATGTGTAATATAAAA, 9.38; for “TTATGTTCTTAATGCACACTTATAAGTATCTTATAA [CACACA_site1394]”, 9.25. Consider “TATATAATTATTTGATGTACACTACAATGTATTTGT [XGTACX_site7991]”, for which the “gcPBM binding intensity (ln)” value came to 9.21. For “TATAAAATATATATCTGTACGTATTTTATTTTTTAT [XGTACX_site6257]” the value was 9.35; for “TATAAGCAAAGACACACACACATATAAATATAAATA [CACACA_site7740]”, 10.1; for “TTTTTTTTTTTTTTGTCACACACCTTCATAAGAAAA [CACACA_site1166]”, 9.09.

As to “CACACCATATAATATATATATATGTATATATTTATA [CACACA_negctrl_site397]”, the “gcPBM binding intensity (ln)” value was 9.22.

Regarding “ACACAAAAATAAAAATGTACAAATTAAAAAAAATGA [XGTACX_site2083]”, the “gcPBM binding intensity (ln)” value turned out to be 9.58.

In the case of “TAAAAGGAACAAAATTGTACTTAAAAGACAAAGTTA [XGTACX_site7661]”, the “gcPBM binding intensity (ln)” value is 9.13. On to “ATATATATTAATAGTTGTACTATTATAATATTACAA [XGTACX_site1213]”, for which the “gcPBM binding intensity (ln)” value was found to be 8.96. With “ATCCTGAACAGAATATGTATAAACAGAAGGAAACAA [CACACA_negctrl_site1805]” the figure was 9.45. For “TTTGTTCTATGGAGTTTAAAATGTAATATATATTAA [GTGCAC_negctrl_site151]” the value was 9.03; for “CTTTGTAGTTGGTCCACACACATATATGGAAGAATA [CACACA_site1280]”, 9.39. Turning to “ATATATATATATATATATATATATATATTTATATAT [GTGCAC_negctrl_site180]”, the “gcPBM binding intensity (ln)” value was 8.92. On to “TAATAATAGAGACACACACACATTTTTAATAATACA [CACACA_site6691]”, for which the “gcPBM binding intensity (ln)” value was determined as 9.83.

With “TTAACATTTTAAAAATGTACATTTATATACATAAAT [XGTACX_site922]”, the “gcPBM binding intensity (ln)” value was determined as 8.9. For “AGAAAAATTCTAAGAACATGCAAAAAAATAAAAAAA [TGCATGCA_site293]” the value was 9.35. With “TCTAATGTAATGCATACACACAACTATCCATCAAAA [CACACA_site534]” the figure was 9.43; with “AAAAAATAAATAAATATACACACCATATATATATTT [CACACA_site2854]”, 9.6; with “TTTTTTTTTTTAAATAGTACACATATATATATATAT [XGTACX_site6983]”, 8.93. With “TATACCTATAGACACACACACATAAATAGATATATA [CACACA_site6748]” the figure was 10; with “TACACGCATAGACACACACACACACGCATATAAATA [CACACA_site6446]”, 10.3.

Consider “AAAAAAAAAAAAAAAAGTACAAAAAAAAAAAAAAAA [XGTACX_site4549]”, for which the “gcPBM binding intensity (ln)” value was found to be 8.72. For “TTTTATTTTTCTAGTAGTACTTCTTTTTATAATATA [XGTACX_site1181]” the value was 9.28; for “AGTTTACACCTTGTGAGTACATACATACATATATAT [XGTACX_site8793]”, 9.3.

With “ACTTTTTTTTTTTTTTTAGATTACATAAATATAAAT [CACACA_negctrl_site139]”, the “gcPBM binding intensity (ln)” value was found to be 9.2. For TTATAAATTTAAAAAGTGCATAATAATAACAAAAAG the value was 9.45. For “TATGTATATTTAAATGCATGTGATTATTTTTGACTT [TGCATGCA_site568]” the value was 9.09.

For the sequence “AAAAAAAAAAAAAAAACACACATATAGATTATTGTA [CACACA_site7797]”, the “gcPBM binding intensity (ln)” value was found to be 9.34. With “TTTTAATTTATCGACACACGCATGAATAGAAATTAG [CACACA_site3361]” the figure was 9.11; with “TATTTTTATTTTCCTTCACACATTTTTTATATTTTT [CACACA_site5830]”, 9.77. With “TTATAATTTAATAAATGTACATAAATAATATACATA [XGTACX_site7271]”, the “gcPBM binding intensity (ln)” value came to 8.92. “AACACAATAAAAATTAAAAATGTTAAGTAAATATAA [GTGCAC_negctrl_site60]”: the “gcPBM binding intensity (ln)” value was 9.41. For the sequence “AGACAATATCTTATTTGTACATATGTATTCCTCATA [XGTACX_site5757]”, the “gcPBM binding intensity (ln)” value is 9.33. Consider “AATTATTCATAAAATGCATGTACATGGTTTAATATT [TGCATGCA_site87]”, for which the “gcPBM binding intensity (ln)” value was determined as 9.3.

For the sequence “TCGTAAACTTTATGCACACACATATACATATTTCAT [CACACA_site739]”, the “gcPBM binding intensity (ln)” value worked out at 9.87.

“ATACATGTTTTATGTGCACACAAAGTTGTTATGAGG [CACACA_site4032]”: the “gcPBM binding intensity (ln)” value was 9.77.

As for “ATAATACACAAGCACACACACACACGGATATTTATA [CACACA_site6714]”, the “gcPBM binding intensity (ln)” value is 10.3. With “ATAATTATATTTTATTCACACATCGTTATATAGTAA [CACACA_site4743]” the figure was 9.31. With “ATTATGGATACATAAACACACATATATATAAAAAAA [CACACA_site4303]” the figure was 9.66; with “ACATGATAAATAGTCACACATAAATATAATATATAT [CACACA_site5207]”, 9.52. With “CTAATATATGTATGCACACACAATATATACATATTT [CACACA_site3360]” the figure was 9.59; with “GTTATACACATATATACACACATATGTAAATATATA [CACACA_site9080]”, 9.49. For “ATATTACAAATATAATGTACAAAATATAAATATGCA [XGTACX_site8106]”, the “gcPBM binding intensity (ln)” value stood at 9.42. “GTCCTTACTAATTAATTTTAGGCCATATAGTTTGTC [XGTACX_negctrl_site199]”: the “gcPBM binding intensity (ln)” value worked out at 9.38. On to “AAATGCGTATATAACGCATGTATAAGAACATTTTTT [TGCATGCA_site225]”, for which the “gcPBM binding intensity (ln)” value was 9.12. For “TTATAATCTATACATATATATGTATGTATGTCTCAA [CACACA_negctrl_site1702]” the value was 9.24; for “ACATCATTTTTATGTACACACACATATACGTTGAAT [CACACA_site5095]”, 9.98. With “GAAGTATTATTAAAGCTGCACTTTTCTAAAATAAAC [GTGCAC_site9429]” the figure was 9.01; with “CATTAATTTAATAAATGTACATAAAATATATATTAT [XGTACX_site8085]”, 9.16; with “TAAAATTTACAACACTGTACTTGAATTTATCTTTAA [XGTACX_site241]”, 9.16.

Regarding “GCAGTATGCGATCAGTGTACGAGTTATTTTATAAAA [XGTACX_site4764]”, the “gcPBM binding intensity (ln)” value was determined as 8.92. With “ATGTTATATTTTTTTATACACACTGGGATATATAAA [CACACA_site6244]” the figure was 9.41.

For the sequence “TTCATTGTGTTAACGGTGCATATATTTTTTCACCGT [GTGCAC_site9464]”, the “gcPBM binding intensity (ln)” value is 9.27. With “TAAAAATATAAAAAGTGTACAATATATAAATTAATA [XGTACX_site1606]” the figure was 9.43; with “ATATTAAAAAAATATGCATGCAAATATTATTTTGTA [TGCATGCA_site191]”, 8.99; with “AATCAAATTTTCAAGTCGCACCAAACAAAAAAATGA [CACACA_negctrl_site1397]”, 9.23. Consider “TATTTAATTAATATAATATTAAACGGAAAAGATAAA [TGCATGCA_negctrl_site148]”, for which the “gcPBM binding intensity (ln)” value was found to be 9.27. For “TTTTTCTTTTTTTTTTTAATAATATATAACAAATTT [CACACA_negctrl_site1724]” the value was 9.01.

With “TGCCATATATATATTAAATACATAATAATGAGCCTA [GTGCAC_negctrl_site10]”, the “gcPBM binding intensity (ln)” value was 9.12. On to “AGTCATAAATTTATTTGTACATATAATATATATATA [XGTACX_site8489]”, for which the “gcPBM binding intensity (ln)” value is 9.2. As to “AAAATATATAATTTTTAACACACAAAAAAAAAAAAA [CACACA_site9192]”, the “gcPBM binding intensity (ln)” value amounted to 9.22.

Consider “ATAAACAAAAAAAAAAAATATATCAATATATATATA [CACACA_negctrl_site299]”, for which the “gcPBM binding intensity (ln)” value came out at 9.12. For “GAATTTCAACAAAGTAGTACATTTTATAGTAATTGG [XGTACX_site2319]” the value was 9.07.

For “ATAAATATGTTCTGCACACAAATAAGTGTTTGAAGT [CACACA_site3892]”, the “gcPBM binding intensity (ln)” value came to 9.39. With “TAATGGAATAAAAATTGTACATATTTTTTTTTTTTT [XGTACX_site7669]” the figure was 9.04. For “AACTCACGAGGACACACACACATATATATATATATA [CACACA_site4711]”, the “gcPBM binding intensity (ln)” value amounted to 9.87. For “TATAATATATCTGTAACACACAAAAGTTATATACTT [CACACA_site5578]” the value was 9.29; for “TTTTTTTCTCTCTCTACACACAAGGTTTAATTTAAA [CACACA_site1690]”, 9.55. With “ACATACATACATACATACATACATACATACATACAT [XGTACX_negctrl_site315]” the figure was 9.02; with TCATAGGGGTAGAAGGTGCAATAAAAAAGAAGAAAA, 9.19; with “AATGTGTAGGTAAGATAATTTTTGTTTTTTTATTTG [CACACA_negctrl_site424]”, 9.46. For the sequence “ATATTTATAATATAGAGTACTTACTAAGTTATGGGT [XGTACX_site5405]”, the “gcPBM binding intensity (ln)” value was 9.23. With “TTAAACTTGAAACACACACACACACCCATATAAAAA [CACACA_site758]” the figure was 10.1. Consider “TTTTTATATATATGTATAAATATTTTTTCTATTTAT [XGTACX_negctrl_site606]”, for which the “gcPBM binding intensity (ln)” value amounted to 9.1. With “AAATTTTCTTAAGGTTGTACTTTTTGAAAATAATCT [XGTACX_site4894]” the figure was 8.98; with “TGTAGTCTGGAGAAACGTACATAGTATCTGGTAGCT [XGTACX_site2538]”, 9.18. As for “AAAAAAAAAAAAAAAAGTACAAAAATATATATGCAT [XGTACX_site8392]”, the “gcPBM binding intensity (ln)” value turned out to be 9.34. For “TATGCACAGAAACACACACACACAACCAAAAAATAA [CACACA_site5425]” the value was 10.2.
